# The list shows a part of the results.
# Target: no compound (DMSO)
# Assay: log2 fold change of degron read counts, EGFP-low vs EGFP+ sorted cells; higher = lower degron-EGFP level without compound (poor expression or instability)
# Conditions: compound: DMSO control; 18 h
# 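Note: jurkat cells carrying a lentiviral library of mutant zinc finger degrons fused to EGFP plus mCherry, mCherry+ cells FACS sorted, degron abundance counted by next-generation sequencing.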
row,Sequence,log2 fold change of degron read counts
1,FTCNQCGAEFTQKGNLLRHIKL,-1.83
2,FSCPICGADFTQKGNLLRHIKL,0.00546
3,FKCDICGACFTQKGNLLRHIKL,-1.45
4,FKCEVCGAEFTQKGNLLRHIKL,-3.39
5,FTCNQCGRTFTQKGNLLRHIKL,-1.03
6,FDCNVCGAIFTQKGNLLRHIKL,0.181
7,FYCPICGHAFTQKGNLLRHIKL,-1.45
8,LTCNQCGFICTQKGNLLRHIKL,0.722
9,FMCPICGHYFTQKGNLLRHIKL,0.32
10,LMCEICGFSCTQKGNLLRHIKL,0.542
11,FDCNQCGRSFTQKGNLLRHIKL,-0.407
12,FCCDVCGAKFTQKGNLLRHIKL,-2.4
13,FACNQCGRIFTQKGNLLRHIKL,-1.1
14,FQCPVCGAYFTQKGNLLRHIKL,0.113
15,LECEICGFICTQKGNLLRHIKL,-0.04
16,FACDVCGATFTQKGNLLRHIKL,-1.18
17,FNCEVCGAKFTQKGNLLRHIKL,-1.13
18,FGCPICGRYFTQKGNLLRHIKL,0.233
19,LKCPICGFMCTQKGNLLRHIKL,0.0276
20,FACPICGRWFTQKGNLLRHIKL,0.893
21,FGCDQCGASFTQKGNLLRHIKL,-1.79
22,LNCNQCGFMCTQKGNLLRHIKL,0.75
23,FQCPICGHAFTQKGNLLRHIKL,-0.198
24,FWCEQCGASFTQKGNLLRHIKL,-0.859
25,FQCNQCGRWFTQKGNLLRHIKL,-0.958

row,Sequence,log2 fold change of degron read counts
1,FRCPICGAEFTQKGNLLRHIKL,-0.567
2,FLCNQCGAVFTQKGNLLRHIKL,0.17
3,FNCEVCGAPFTQKGNLLRHIKL,0.197
4,FLCEQCGAPFTQKGNLLRHIKL,-1.01
5,FLCPVCGAQFTQKGNLLRHIKL,-0.881
6,LTCNQCGFKCTQKGNLLRHIKL,-0.283
7,FSCNVCGAWFTQKGNLLRHIKL,0.0307
8,FTCEVCGARFTQKGNLLRHIKL,-1.6
9,FHCPICGHDFTQKGNLLRHIKL,-0.99
10,FYCEVCGALFTQKGNLLRHIKL,-0.526
11,FRCEICGREFTQKGNLLRHIKL,-1.74
12,FYCPVCGAQFTQKGNLLRHIKL,-0.00395
13,FRCNQCGHPFTQKGNLLRHIKL,0.6
14,LMCNQCGFKCTQKGNLLRHIKL,0.497
15,FQCEQCGAWFTQKGNLLRHIKL,-1.13
16,FSCEQCGACFTQKGNLLRHIKL,-2.64
17,FCCPICGAHFTQKGNLLRHIKL,-0.314
18,FQCDICGAFFTQKGNLLRHIKL,-1.16
19,FMCPICGRTFTQKGNLLRHIKL,-0.896
20,FHCDICGALFTQKGNLLRHIKL,-0.162
21,LHCEICGFMCTQKGNLLRHIKL,0.151
22,FACDICGADFTQKGNLLRHIKL,-1.96
23,FLCNQCGAMFTQKGNLLRHIKL,-0.0501
24,FGCPVCGAGFTQKGNLLRHIKL,-0.0215
25,FSCPICGHYFTQKGNLLRHIKL,0.0826
